# From PubChem BioAssay AID463173 (ICCB-Longwood Screening Facility, Harvard Medical School, 2010)
# The whole screen tested about 52,000 compounds, of which about 1,700 (3.3%) were called active. No stated cut-off is given here; in the data, active means survival mostly below about 52% (no sharp cut-off); inactive means mostly above about 56%. This is one part of the list.
# Test system: Wild type
# Assay: S. aureus survival, RN4220 and DeltatarO strains – OD600, teichoic acid synthesis inhibitors, primary screen (AID 463173)
# Details: S. aureus RN4220 wild type/DeltatarO growth, OD600, 18 h, stronger effect = lower value, screened at 18.75 µg/mL (by protocol)
row,SMILES,survival
1,CCc1ccc(S(=O)(=O)Nc2ccc3c(c2)sc(=O)n3C)cc1,inactive: 90%
2,Cc1ccc(Cl)cc1NC(=O)CN1C=NS(=O)(=O)c2ccccc21,inactive: 73%
3,O=c1c2ccccc2nc(SCc2ccccc2)n1Cc1ccco1,inactive: 111%
4,Cc1ccc(Cl)cc1N1CCN(C(=O)C2CCN(S(=O)(=O)c3cn(C)cn3)CC2)CC1,inactive: 88%
5,Cc1cccc(N2CCN(CCCNC(=O)Cn3ncc4c([nH]c5ccccc54)c3=O)CC2C)c1 (stereo not drawn),inactive: 101%
6,Cc1cc(C)c2c(n1)nn1c(C)c(CCC(=O)Nc3cccc(C)c3C)c(C)nc21,inactive: 86%
7,Cc1ccc(-c2nc3cccc(C)n3c2Nc2ccc3c(c2)OCCO3)cc1,inactive: 75%
8,COc1ccc(N(C)C(=O)Cn2cnc3sc(C)c(S(=O)(=O)N4CCN(c5ncccn5)CC4)c3c2=O)cc1,inactive: 74%
9,O=C(NCCS(=O)(=O)N1CCN(c2cccc(Cl)c2)CC1)C(c1ccccc1)c1ccccc1,inactive: 71%
10,CCOCCCn1c(=N)c(C(=O)NC2CCCCC2)cc2c(=O)n3ccccc3nc21,inactive: 74%
11,CCc1nn(CC(=O)NCc2ccccc2)c(=O)c2cccn12,inactive: 89%
12,COC(=O)c1c(NC(=O)c2cc(=O)c3c(C)cc(C)cc3o2)sc2c1CCCC2,inactive: 86%
13,Cc1cccc(NC(=O)CN(c2ccc(C(C)C)cc2)S(=O)(=O)c2c(C)nn(C)c2C)c1C,inactive: 75%
14,CCOC(=O)C1CCN(S(=O)(=O)c2cc(-c3onc(C)c3C)ccc2C)CC1,inactive: 81%
15,Cc1ccc(-n2ncc3c(N4CCN(c5ccccc5)CC4)ncnc32)cc1C,inactive: 69%
16,COCCn1c(C)cc(O)c(C(c2ccccc2)N2CCC(C)CC2)c1=O (stereo not drawn),inactive: 73%
17,CC(=O)N1CCCc2cc(S(=O)(=O)N3CCC(C(=O)N(Cc4ccccc4)C(C)C)CC3)ccc21,inactive: 81%
18,CCOC(=O)N1CCN(C(=O)c2ccc3c(c2)N(Cc2ccccc2F)C(=O)c2ccccc2S3=O)CC1 (stereo not drawn),inactive: 85%
19,O=C(c1c2c(nc3ccccc13)C(=O)N(C1CCCCC1)C2)N1CCN(c2ccc(F)cc2)CC1,inactive: 81%
20,CCc1ccccc1Nc1cc(C(=O)NCc2ccc(C)cc2)c2ccccc2n1,inactive: 89%
21,COc1ccc(N2C(=O)CSC23C(=O)N(C)c2ccccc23)cc1Cl (stereo not drawn),inactive: 85%
22,Cc1ccc(S(=O)(=O)c2cn(Cc3cccc(F)c3)c3cc(N4CCCC4)c(F)cc3c2=O)cc1,inactive: 84%

row,SMILES,survival
1,CCOc1ccc(NC(=O)c2cc3sc(Cl)cc3n2CC)cc1,inactive: 92%
2,COc1ccc(C)cc1Nc1nc2c(S(=O)(=O)c3cccc(Cl)c3)nnn2c2ccsc12,inactive: 88%
3,CCOC(=O)c1c(S(=O)(=O)N2CCCC(C(=O)Nc3ccc(OCC)cc3)C2)c(C)n(C)c1C (stereo not drawn),inactive: 71%
4,Cc1ccc(-c2cc(NC(=O)c3ccccc3Cl)on2)cc1,inactive: 67%
5,CCCOc1ccccc1-c1nc(SCC(=O)c2ccccc2)n[nH]1,inactive: 85%
6,CCN1CCN(CCCNC(=O)c2ccc3nc(Cc4ccc(OC)cc4)oc3c2)CC1,inactive: 95%
7,CC(C)C(=O)Nc1ccc(Br)cc1,inactive: 104%
8,CCOc1cc(CNS(=O)(=O)c2ccc3c(c2)CC(=O)N3C)cc(OCC)c1OCC,inactive: 120%
9,O=C(Nc1ccc(C(=O)N2CCN(c3ccc(F)cc3)CC2)cc1)c1nsc2ccccc12,inactive: 55%
10,COc1ccc(Br)cc1C(=O)Nc1ccc2oc(-c3cccnc3)nc2c1,inactive: 130%
11,CC(=O)Nc1ccc(S(=O)(=O)N2CCC(c3ccncc3)CC2)cc1,active: -6%
12,CCCCN(CCCC)c1ncnc2c1cnn2-c1cccc(C)c1,inactive: 91%
13,Cc1cc(C)n(C(C)CC(=O)NCc2ccccc2C)n1 (stereo not drawn),inactive: 127%
14,Cc1ccc2c(CN3CCN(Cc4ccccc4Cl)CC3)cc(=O)oc2c1,inactive: 79%
15,COc1ccc(CCNC(=O)CCCn2c(=O)c3cccn3c3cccnc32)cc1OC,inactive: 91%
16,COc1ccc(OCc2ccc(-c3nc(C#N)c(N4CCN(C)CC4)o3)o2)cc1,inactive: 74%
17,CCC1CN(C(=O)NCc2cccc(OC)c2)c2cc(Cl)ccc2O1 (stereo not drawn),inactive: 78%
18,Cc1ccccc1C(=O)c1cccn1CC(=O)NCc1ccc(Cl)cc1,inactive: 98%
19,CC(C)(C)C(=O)N(CCc1ccccc1)Cc1nc2ccccc2c(=O)[nH]1,inactive: 107%
20,COc1ccccc1CNC(=O)Cc1c(C)c2c(cc(C)c3c(C)c(C)oc32)oc1=O,inactive: 87%
21,CCCC(=O)N(C)c1nnc(-c2ccc(F)cc2)s1,inactive: 107%
22,CCCCC1CCC(C(=O)N2CC(=O)Nc3ccc(F)cc3C2c2ccc(F)cc2)CC1 (stereo not drawn),inactive: 77%

row,SMILES,survival
1,Cc1cccc(N2CCN(C(c3nnnn3C3CCCC3)C(C)C)CC2)c1C (stereo not drawn),inactive: 98%
2,CCOC(=O)c1cc2c(=O)n3ccccc3nc2n(CC2CCCO2)c1=NC(=O)c1ccc(C(C)(C)C)cc1 (stereo not drawn),inactive: 90%
3,Cc1nc2sc(C(=O)N(C)Cc3ccccc3)c(NC(=O)c3ccccc3)c2c(C)c1Cl,inactive: 87%
4,CCN(CC)c1nn2c(=O)c(C(=O)NCCc3ccc(C)cc3)cnc2s1,inactive: 82%
5,COc1ccc(NC(=O)c2ccc(CN3C(=O)CCn4nc(C)cc43)cc2)c(OC)c1,inactive: 73%
6,CCn1c2ccccc2c2nnc(N3CCN(c4ccc(F)cc4)CC3)nc21,inactive: 83%
7,CCOC(=O)c1c(NC(=O)COc2cccc(C(F)(F)F)c2)sc2c1CCC(C)C2 (stereo not drawn),inactive: 74%
8,COc1ccc(NC(=O)CSc2cn(CC(=O)N3CCCCC3)c3ccccc23)c(OC)c1,inactive: 95%
9,CCCC(=O)Nc1ccc2c(c1)nc(CN1CCN(C(=O)OCC)CC1)n2C(C)C,inactive: 117%
10,CCOc1ccc(CNC(=O)c2ccc(Sc3ccc(Cl)cc3)c(NC(C)=O)c2)cc1,inactive: 115%
11,Cc1cc(C)cc(Nc2ncnc3c2nc2n3CCCC2)c1,inactive: 67%
12,CC(C)CCNC(=O)CN1C(=O)CCn2nc(-c3cn(C)c4ccccc34)cc21,inactive: 87%
13,CCOc1ccc(NC(=O)CSc2oc(-c3ccco3)nc2S(=O)(=O)c2ccc(C)cc2)cc1,inactive: 64%
14,COc1ccc(C)c2sc(NC(=O)c3ccc(S(=O)(=O)N4CCCCC4)cc3)nc12,inactive: 90%
15,CC(C)OC(=O)CSc1nc2cc3c(cc2cc1C#N)OCO3,inactive: 103%
16,COC(=O)c1ccc(C=Nc2ccc(O)c(-c3nc4ccccc4o3)c2)cc1,inactive: 98%
17,COc1ccc(N2CC(NC(=O)COc3ccccc3F)CC2=O)cc1OC (stereo not drawn),inactive: 65%
18,Cc1nc(S(=O)(=O)N2CCN(c3ccc(Cl)cc3)CC2)cn1C,inactive: 73%
19,Cc1nnc(SCc2cc(=O)c3ccccc3[nH]2)s1,inactive: 140%
20,CCOc1ccc(S(=O)(=O)NCCc2csc(-c3ccc(Cl)cc3)n2)cc1,inactive: 77%
21,CCCN1CCN(CCCNC(=O)c2cc3c(Cl)nc4ccccc4c3s2)CC1,inactive: 80%
22,CCCOc1ccc(NC(=O)CC2C(=O)N(c3ccc(C)cc3)C(=O)N2C(C)C)cc1 (stereo not drawn),inactive: 133%

row,SMILES,survival
1,CCCOc1ccc(/C=C/C(=O)Nc2sc(C)c(C)c2C(=O)OCC)cc1OC,inactive: 87%
2,CCOc1ccc(CCNC(=O)c2ccc(-c3nc(CSc4ccc(C)cc4)c(C)o3)cc2)cc1,inactive: 60%
3,COc1ccc(OC)c(NC(=O)CCN2CCN(Cc3cccc4ccccc34)CC2)c1,inactive: 110%
4,CCN(Cc1nc(-c2cccc(C)c2)no1)S(=O)(=O)c1ccc(C)cc1,inactive: 74%
5,O=C(COc1ccccc1)Nc1sc2c(c1C(=O)Nc1ccccc1Cl)CCCCC2,inactive: 73%
6,COC(=O)c1cc(NC(=O)Nc2ccc3snnc3c2)cc(C(=O)OC)c1,inactive: 103%
7,CC1CCCCN1C(=O)Cn1cc(C(=O)C2CC2)c2ccccc21 (stereo not drawn),inactive: 103%
8,Cc1cccc(C)c1NC(=O)CN1C(=O)CCSc2ccc(S(=O)(=O)N3CCCC3)cc21,inactive: 72%
9,Cc1ccc(C)c(N2C(=O)N(Cc3c(F)cccc3Cl)c3ccccc3S2(=O)=O)c1,inactive: 85%
10,COc1ccc(N(CC(=O)Nc2ccc(C)c(C)c2)S(=O)(=O)c2ccc(C)cc2)cc1OC,inactive: 74%
11,O=C(NCc1cccnc1)c1ccc(NC(=O)c2ccco2)cc1,inactive: 91%
12,Cc1ccccc1-c1noc(-c2ccc(N3CCN(c4ccccc4)CC3)c([N+](=O)[O-])c2)n1,inactive: 83%
13,CC(=O)OCc1cc(=O)n2nc(C3CCCCC3)sc2n1,inactive: 56%
14,Cc1c(Cl)cccc1-n1ncc(C(=O)N2CCN(C)CC2)c1C1CCN(C(=O)OC(C)(C)C)CC1,inactive: 87%
15,COc1ccc(S(=O)(=O)n2nc(C)c(S(=O)(=O)N3CCCCC3)c2C)cc1,inactive: 63%
16,CC1CCN(C(=O)c2ccc3c(c2)N(Cc2ccccc2F)C(=O)c2ccccc2S3(=O)=O)CC1,inactive: 93%
17,Cc1ccc(NC(=O)C(=O)NCC(c2cccnc2)N2CCOCC2)cc1 (stereo not drawn),inactive: 85%
18,C=C(C)Cn1c(SCC(=O)Nc2ccccc2C)nc2sc3c(c2c1=O)CCCC3,inactive: 109%
19,COc1ccccc1N1CCN(C(=O)c2cc3c(=O)n(C)c4ccccc4c3s2)CC1,inactive: 76%
20,COc1ccc(CNC(=O)Cn2nc(C)n3cccc3c2=O)cc1,inactive: 88%
21,COc1ccc(-c2nc(SCC(=O)NC3CCCC3)c(-c3ccc(OC)cc3)[nH]2)cc1,inactive: 89%
22,COc1ccccc1-c1noc(-c2ccc(N3CCOCC3)c([N+](=O)[O-])c2)n1,inactive: 99%
